Source: publication PMC4336329 (PLoS ONE, 2015)
Out of some 310,000 compounds screened, about 14,000 (4.5%) showed an effect of 50% or more. Effects have a minus sign here. The list shows a part of the results.

target: human ether-à-go-go-related gene (hERG) potassium channel (human, UniProt Q12809); assay: primary screen, population patch clamp on CHO cells stably expressing hERG
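Note: peak tail current of the secondary pulse compared with the same well before compound.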

Chain of human ether-à-go-go-related gene (hERG) potassium channel (Q12809 whole entry, looked up): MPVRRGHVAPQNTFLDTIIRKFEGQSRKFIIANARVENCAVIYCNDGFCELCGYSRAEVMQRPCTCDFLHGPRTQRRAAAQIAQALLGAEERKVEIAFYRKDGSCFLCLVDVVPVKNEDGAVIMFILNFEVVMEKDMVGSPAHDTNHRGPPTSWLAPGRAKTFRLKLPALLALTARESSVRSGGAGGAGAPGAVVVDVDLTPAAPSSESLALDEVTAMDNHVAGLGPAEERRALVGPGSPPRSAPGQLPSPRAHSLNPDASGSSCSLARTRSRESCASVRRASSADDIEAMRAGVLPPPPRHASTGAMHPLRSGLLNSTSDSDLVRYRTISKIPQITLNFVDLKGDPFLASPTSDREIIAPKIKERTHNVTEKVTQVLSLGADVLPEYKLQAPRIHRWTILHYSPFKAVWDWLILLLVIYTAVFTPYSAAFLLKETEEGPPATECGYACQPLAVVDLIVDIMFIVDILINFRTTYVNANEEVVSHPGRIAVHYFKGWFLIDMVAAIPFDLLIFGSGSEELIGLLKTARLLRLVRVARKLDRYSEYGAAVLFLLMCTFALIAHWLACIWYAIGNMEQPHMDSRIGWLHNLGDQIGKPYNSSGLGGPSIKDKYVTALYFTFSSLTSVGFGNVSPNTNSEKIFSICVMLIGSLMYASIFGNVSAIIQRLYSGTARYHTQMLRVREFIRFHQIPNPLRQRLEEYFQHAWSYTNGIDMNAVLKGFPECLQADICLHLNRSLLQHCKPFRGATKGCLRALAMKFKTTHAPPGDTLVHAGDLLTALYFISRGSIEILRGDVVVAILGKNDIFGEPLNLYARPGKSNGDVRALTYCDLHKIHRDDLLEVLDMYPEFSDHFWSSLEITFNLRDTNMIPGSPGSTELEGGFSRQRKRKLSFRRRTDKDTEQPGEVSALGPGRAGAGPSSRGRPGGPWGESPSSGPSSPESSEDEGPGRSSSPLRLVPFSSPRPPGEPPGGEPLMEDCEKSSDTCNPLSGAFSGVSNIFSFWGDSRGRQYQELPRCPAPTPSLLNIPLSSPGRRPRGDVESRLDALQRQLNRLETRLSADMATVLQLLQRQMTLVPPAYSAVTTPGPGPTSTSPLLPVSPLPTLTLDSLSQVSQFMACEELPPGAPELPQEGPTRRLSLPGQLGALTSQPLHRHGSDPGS

Compound	hERG current change (%, negative = inhibition) at 10uM [%]
COc1ccc(C)cc1NC(=O)CC(NC(C)=O)c1ccccc1 (centres unmarked)	12.9
CC(C)(C)OC(=O)N[C@@H](Cc1c[nH]c2ccccc12)c1nnc(SCC(N)=O)o1	-3.96
CC(C)C[C@@]12C(=O)N(c3ccc(Br)cc3)C(=O)N1[C@H](c1ccc(Br)cc1)[C@@H]1C(=O)N(C(C)(C)C)C(=O)[C@@H]12	-3.38
COc1ccc(OCC(=O)Nc2c(C(=O)N3CCN(C)CC3)oc3ccccc23)cc1	-42
COc1ccc(NC(=O)N2CCCC(c3nc(-c4ccc(OC)cc4)no3)C2)cc1 (centres unmarked)	-4.38
S=C(Nc1ccccc1)N(CCN1CCOCC1)Cc1cccc(Cl)c1	7.59
CCc1c(C)nc(SCc2ccccn2)[nH]c1=O	13.3
COc1ccc(NC(=S)N(CCN(C)C)C(C)c2ccco2)cc1Cl (centres unmarked)	-36.3
CC(=O)Oc1ccc(/C=c2\sc3ncnn3c2=O)cc1	0.932
CCCOC1CCCN(Cc2nc(-c3ccc(C(=O)OC)cc3)no2)C1 (centres unmarked)	2.56
O=C(NCc1cccnc1)C1CC(=O)N(C2CCCCC2)C1 (centres unmarked)	-3.78
COc1ccc(-c2nnn(CC(=O)NCc3ccccc3)n2)cc1OC	7.61
CCOC(=O)/C(C#N)=C/c1c(Oc2cc(C)cc(C)c2)nc2ccccn2c1=O	5.1
NC(=O)COC(=O)c1cc(=O)[nH]c2ccccc12	6.36
COc1cc(S(=O)(=O)NCc2ccccn2)c(OC)cc1Cl	-1.73
Cc1nc2c(c(=O)[nH]1)C(c1ccccc1Cl)c1c(c3ccccc3oc1=O)O2 (centres unmarked)	8.77
CC1=C(C(=O)Nc2ccc(C)cc2)C(c2ccco2)NC(=O)N1 (centres unmarked)	-4.51
CN(Cc1ccccc1)C(=O)c1ccc(NC(=O)Cc2cccc(NC(=O)C3CCN(C(=O)C4CCCCC4)CC3)c2)cc1	8.47
Oc1oc(-c2ccccc2Br)nc1/C=N/c1ccccn1	2.11
COc1ccc(N(C)S(=O)(=O)c2cccc(C(=O)Nc3cccc(C(=O)NC4CC4)c3)c2)cc1	-11.3
COc1ccc(C(=O)N(Cc2ccco2)Cc2cccs2)c(O)c1	-6.63
C#CCn1c(=NC(=O)CN2C(=O)CCC2=O)sc2cc(S(N)(=O)=O)ccc21	17.1

Compound	hERG current change (%, negative = inhibition) at 10uM [%]
O=C(N/N=C/c1ccccc1O)c1ccc2c(c1)OCO2	23.9
CCOC(=O)CC(NC(=O)CCS(=O)(=O)c1ccc2c(c1)n(C)c(=O)c(=O)n2C)c1ccc(C)cc1 (centres unmarked)	9.03
CCCc1cc(=O)oc2cc(C)cc(OCC(=O)Nc3cccnc3)c12	-0.927
CC(C)C(NC(=O)CN(c1cccc(F)c1)S(C)(=O)=O)C(C)C	1.21
CS(=O)(=O)c1ccccc1C(=O)Nc1ccccc1Cc1ccccc1	11.9
CCOCCCNC(=O)C(NC(=O)c1ccc(=O)[nH]c1)c1ccc(C)cc1 (centres unmarked)	8.03
O=C(NCc1ccccn1)Nc1cc(Cl)cc(Cl)c1	21.4
O=C(NCc1ccccn1)C(=O)NCC1OCCN1C(=O)c1ccc(Cl)cc1 (centres unmarked)	8.81
CN(CCc1ccccn1)C(=O)Nc1ccc(C(C)(C)C)cc1	-19.3
CCCCCC(=O)Nc1ccccc1N1CCN(c2ccccc2)CC1	-0.752
CCc1ccc2[nH]c(=O)c(CN(Cc3ccccc3)Cc3nnnn3Cc3ccco3)cc2c1	12.6
CCN(C(=O)COC(=O)c1cc(Cl)ccc1OC)c1c(N)n(Cc2ccccc2)c(=O)[nH]c1=O	4.46
OCC1(Cc2cccc(F)c2)CCN(Cc2cccc3nccnc23)CC1	-59.8
O=C(N/N=C/c1cccc(O)c1)N/N=C/c1cccc(O)c1	9.81
COCCN1CCN(c2cc(-c3ccccc3)nc3cc(-c4cccc(F)c4)nn23)CC1	-5.02
COc1ccc2cc(S(=O)(=O)NCc3cccnc3)ccc2c1	-8.18
CCCc1ccc(NS(=O)(=O)c2c(C)oc(C)c2C(=O)OC)cc1	6.25
O=C(C1CCCN(Cc2ccccc2F)C1)N1CCc2ccccc2C1.O=C(O)C(=O)O (centres unmarked)	-22.6
CC(C)C12CN3CC(C(C)C)(CN(C1)C3c1cccnc1)C2=O (centres unmarked)	-6.26
CCC(C)(C(=O)NC1CCCCC1)N(C(=O)c1ccccn1)c1ccc(C)cc1 (centres unmarked)	5.82
COc1ccc(NC(=O)O/N=C/c2c(C)nn(C(C)(C)C)c2C)cc1	-17.7
O=C(Cc1nc2ccccc2[nH]1)c1cccc([N+](=O)[O-])c1	10.6

Compound	hERG current change (%, negative = inhibition) at 10uM [%]
COc1cc(-c2noc(C)c2/C=C/c2ccc(C(=O)O)cc2)cc(OC)c1OC	-4.61
CCC(=O)Nc1ccc(NC(=S)NC(=O)c2cc3ccccc3o2)cc1	7.15
CO/N=C(/CS(=O)Cc1ccccc1Cl)c1ccc(Cl)cc1Cl (centres unmarked)	-6.41
COc1ccc(NS(=O)(=O)c2cc(NC(=O)CCNC(C)=O)ccc2N2CCOCC2)cc1	-8.01
OC(COc1cccc(OCC(O)CN2CCCC2)c1)CN1CCCC1 (centres unmarked)	-2.86
c1ccc(Oc2cccc(OCCn3cncn3)c2)cc1	-12.7
C/C(=N/NC(=O)Nc1ccccc1)c1ccc(C)cc1	-1.46
CCOc1ccccc1NC(=O)CSc1nc2cccnc2n1C	-1.64
Cn1nc(C(F)(F)F)c2cc(C(=O)N3CCOCC3)sc21	25.8
COc1cc(C)nc(-n2nc(C)cc2OC)n1	14.6
CC(C)(C)c1cc(OC(=O)c2ccccc2F)ccc1O	-26.2
CCn1cc(CNCc2c(C(=O)N3CCCCC3)nc3c(C)cccn23)cn1	-21.1
Fc1ccc(Nc2ccnc(C(F)(F)F)c2)cc1	2.74
Cc1ccc(NS(=O)(=O)c2ccc(Br)cc2)nc1	17.1
COCCN1CCN(C(=O)C2CCC(=O)N(Cc3ccc(Cl)cc3)C2)CC1 (centres unmarked)	-1.8
CCc1ccc(/C=C2\SC(N3CCCC3)=NC2=O)cc1	-46.9
COc1cc2c(cc1OC)CN(C(=O)CN1CCN(S(=O)(=O)c3ccccc3Br)CC1)CC2	-45.5
CC(C)(C)c1cc(C(=O)NC2CC2)n(Cc2ccc(F)cc2)n1	5.31
CCOC(=O)Cn1nnnc1CN(Cc1cccs1)Cc1cc2cc(C)cc(C)c2[nH]c1=O	-22.8
CN1C(=O)[C@H]2[C@@H](/C=C/c3ccccc3)N3C(=O)CN(CC4CC4)C(=O)[C@@]3(C)[C@H]2C1=O	12
O=C(NNC(=O)c1cc2cc3ccccc3nc2s1)c1cccc(C(F)(F)F)c1	8.19
COc1ccc(CC(=O)Nc2c3c(nn2-c2cccc(Cl)c2)CS(=O)C3)cc1 (centres unmarked)	-37.1

Compound	hERG current change (%, negative = inhibition) at 10uM [%]
NC(=O)c1ccccc1NC(=O)C(c1ccccc1)c1ccccc1	0.258
CNc1ccc([N+](=O)[O-])cc1C(=O)O	2.21
COC(=O)c1sccc1NC(=O)C1C2C=CC(O2)C1C(=O)O (centres unmarked)	5.99
CCCCNC(=S)NNC(=O)c1ccc2c(c1)OCO2	5.46
Cn1ccnc1SCC(=O)Nc1nc2c(F)c(F)c(F)cc2s1	11.3
CCOC(=O)N1CCN(CC(=O)Nc2c(C(=O)OC)[nH]c3ccccc23)CC1	-10.2
CCCCC(C(=O)NC(C)(C)C)N(Cc1ccccc1)C(=O)c1snc(C(N)=O)c1N (centres unmarked)	-15.8
Fc1ccc(-c2ccc(-c3nn4c(-c5ccco5)nnc4s3)o2)cc1	-3.26
Cc1cccc(C(=O)NNC2=C(C(=O)C(F)(F)F)CCC2)c1O	27.9
C=CCC(O)(CC=C)CNC(=O)C1CCC(=O)N(CCCc2ccccc2)C1 (centres unmarked)	0.253
COC(=O)c1ccc(Cn2nc(-c3ccc(C)cc3)ccc2=O)cc1	23.5
CCOC(=O)c1cc(-c2ccccc2)sc1NC(=O)CSc1nnc(N)s1	13.3
COc1ccc(NC(=O)c2cc(Br)ccc2Cl)c(OC)c1	-5.12
O=C(O)C1CCN(C(=O)c2ccccc2N2C(=O)[C@@H]3Cc4c([nH]c5ccccc45)C(c4cccc(Cl)c4)N3C2=O)CC1 (some centres unmarked)	8.89
CON/C=C(\C=Nc1ccc(Cl)cc1Cl)c1ncc(C(F)(F)F)cc1Cl	8.82
CCOC(=O)c1cnc(-c2ccccc2O)nc1Cl	-3.07
FC(F)(F)c1cnc(-c2cnc3c(-c4ccc(Cl)cc4)cnn3c2)c(Cl)c1	-5.19
COc1cccc(NC(=O)C2C3C=CC(O3)C2C(=O)O)c1 (centres unmarked)	10.6
CC1(NC(=O)NCc2ccco2)CCS(=O)(=O)C1 (centres unmarked)	-9.21
O=C(CNc1ccc(Oc2ccccc2)cc1)N1CCOCC1.O=C(O)C(=O)O	-17.4
